# Measured values as given in PMC4336329 (PLoS ONE, 2015).
# Out of some 310,000 compounds screened, about 2,200 (0.71%) showed an effect of 50% or more. Effects have a minus sign here. This is one part of the list.
# Target: human ether-à-go-go-related gene (hERG) potassium channel (human, UniProt Q12809)
# Assay: primary screen, population patch clamp on CHO cells stably expressing hERG
# human ether-à-go-go-related gene (hERG) potassium channel, sequence (Q12809 whole entry, looked up): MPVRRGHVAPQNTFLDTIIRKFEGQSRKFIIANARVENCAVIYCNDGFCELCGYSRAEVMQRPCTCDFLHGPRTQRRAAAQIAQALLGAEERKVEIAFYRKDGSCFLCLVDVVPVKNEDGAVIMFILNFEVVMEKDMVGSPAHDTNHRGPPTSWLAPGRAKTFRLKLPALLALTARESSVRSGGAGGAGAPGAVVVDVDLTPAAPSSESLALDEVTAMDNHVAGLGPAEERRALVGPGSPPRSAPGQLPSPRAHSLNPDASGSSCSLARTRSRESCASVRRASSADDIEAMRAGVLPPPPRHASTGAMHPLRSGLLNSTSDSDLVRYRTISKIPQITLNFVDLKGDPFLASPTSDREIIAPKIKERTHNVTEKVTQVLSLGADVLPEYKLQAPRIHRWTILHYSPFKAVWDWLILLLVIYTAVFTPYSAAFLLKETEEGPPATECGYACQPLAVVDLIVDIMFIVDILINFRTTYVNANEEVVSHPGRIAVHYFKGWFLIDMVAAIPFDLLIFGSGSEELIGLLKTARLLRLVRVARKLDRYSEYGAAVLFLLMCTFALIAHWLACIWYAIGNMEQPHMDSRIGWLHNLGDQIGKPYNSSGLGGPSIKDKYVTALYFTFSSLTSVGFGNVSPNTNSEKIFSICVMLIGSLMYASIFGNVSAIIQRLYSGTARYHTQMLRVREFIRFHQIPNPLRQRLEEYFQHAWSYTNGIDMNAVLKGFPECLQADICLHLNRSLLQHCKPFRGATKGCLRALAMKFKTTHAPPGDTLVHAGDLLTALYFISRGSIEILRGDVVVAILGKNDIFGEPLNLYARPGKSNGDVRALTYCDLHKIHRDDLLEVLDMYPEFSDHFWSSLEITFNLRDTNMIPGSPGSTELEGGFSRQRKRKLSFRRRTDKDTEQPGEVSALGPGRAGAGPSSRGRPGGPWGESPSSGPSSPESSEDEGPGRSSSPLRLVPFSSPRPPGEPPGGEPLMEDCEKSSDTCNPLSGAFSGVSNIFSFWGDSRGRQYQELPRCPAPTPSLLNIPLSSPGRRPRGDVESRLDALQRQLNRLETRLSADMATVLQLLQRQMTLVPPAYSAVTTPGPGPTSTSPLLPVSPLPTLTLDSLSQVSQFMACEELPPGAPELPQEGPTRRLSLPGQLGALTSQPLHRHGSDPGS
row,Structure (SMILES),"hERG current change (%, negative = inhibition) at 1uM"
1,COc1cccc(-c2nc(CS(=O)CC(=O)NCc3ccc4c(c3)OCO4)c(C)o2)c1 (stereo not drawn),6.84%
2,Cc1ccc2c(c1)C1(OCCO1)C(=O)N2,7.08%
3,CCCN1CCN(CCNC(=O)Nc2ccccc2Cl)CC1,14.6%
4,CCOC(=O)[C@@H]1[C@H]2COc3ccccc3[C@H]2N2C(=O)N(c3ccc(OC)cc3)C(=O)[C@]12C,5.61%
5,CNc1nc(Nc2ccc([N+](=O)[O-])cc2)nc(OCC(F)(F)F)n1,5.6%
6,N#Cc1c(NC(=O)c2ccccc2)sc2c1CCC2,5.67%
7,Cc1ccc(CN2CCSc3ccc(C(=O)NCCCN4CCN(C)CC4)cc32)cc1,6.29%
8,O=C(CSc1nnc(Cc2cccs2)n1Cc1ccco1)Nc1cccc(Cl)c1,-1.24%
9,COc1cccc(/C(O)=C2/C(=O)C(=O)N(c3ccccn3)C2c2ccc(OC)c(OC)c2)c1 (stereo not drawn),17.1%
10,Cc1ccccc1Nc1c(N)c(=O)oc2ccccc12,3.96%
11,Cc1nnc(CN(C)Cc2cn[nH]c2-c2ccc(-c3ccccc3)cc2)o1,4.9%
12,CCN(Cc1ccc(NC(C)=O)cc1)CC1CCCN(CCc2cccc(OC)c2)C1 (stereo not drawn),9.83%
13,CSc1nc(-c2ccccc2)nn1C(=O)c1ccc(C)cc1,11.1%
14,COc1ccc(-c2cc(C(=O)N/N=C(\C)c3cccnc3)c3cc(C)ccc3n2)cc1OC,12.1%
15,CCOC(=O)c1c(NC(=O)COC(=O)/C=C/c2ccco2)sc2c1CC(C)(C)NC2(C)C,8.84%
16,COc1cccc(C(=O)C2CCCN(C(=O)CCC3=NNC(=O)CC3)C2)c1 (stereo not drawn),1.91%
17,C=CCSC1=N/C(=C\c2ccc(C(=O)O)cc2)C(=O)S1,14.6%
18,O=S(=O)(c1cnc[nH]1)N1CCc2ccccc21,10.4%
19,CC1=C(C(=O)N2CCCCC2)C(c2cccs2)C2=C(CCCC2=O)N1 (stereo not drawn),11.3%
20,Cc1ccccc1NC(=S)N1CCN(c2ccccc2Cl)CC1,8.24%
21,Cc1ccc(NC(=O)Nc2cccn(Cc3c(F)cccc3Cl)c2=O)cc1,13.2%
22,CC(OC(=O)c1cc(S(=O)(=O)N2CCOCC2)ccc1F)C(=O)NC1CCCC1 (stereo not drawn),6.13%
23,CCN1C[C@]2(COC(=O)c3ccccc3N)CC[C@H](OC)C34[C@@H]5C[C@H]6[C@H](OC)[C@@H]5[C@](O)(C[C@@H]6OC)[C@@](O)([C@H]13)[C@@H](OC)[C@@H]42,8.51%
24,COc1ccc(NC(=O)CN(Cc2ccccc2)S(C)(=O)=O)cc1,1.26%
25,CCCN1C(=O)/C(=C/c2ccc(C)o2)NC1=S,11.5%
26,C=CCOc1c(Br)cc(/C=C2/NC(=S)N(C(C)=O)C2=O)cc1OC,14.9%
27,Cn1c(O)c(N=NC(=O)CNC(=O)c2cccnc2)c2ccccc21,12.1%

row,Structure (SMILES),"hERG current change (%, negative = inhibition) at 1uM"
1,COc1ccc(CC(=O)N/N=C/c2ccc(C)s2)cc1,13.9%
2,O=C(NCc1ccccc1CN1CCCC1)c1ccc(OCc2cscn2)cc1,4.27%
3,CC(=O)N1CCN(c2ncnc3ccccc23)CC1,10.8%
4,COc1ccc(C(=O)[C@@H]2CC[C@](C)(C(=O)O)C2(C)C)cc1,13.5%
5,Cc1cc(C)c(C2C(C#N)=C(N)Oc3n[nH]c(C)c32)cc1CN1CCOCC1 (stereo not drawn),-15.5%
6,COc1ccc(S(=O)(=O)N2CCC(NC(=O)N3CCOCC3)CC2)cc1,3.77%
7,O=S(=O)(Cc1ncc(C(F)(F)F)cc1Cl)c1ccccc1,11%
8,Nn1c(SCc2ccccc2)nnc1-c1ccco1,13.8%
9,CN(Cc1ccco1)C(=O)c1c[nH]c2ccc(S(=O)(=O)Nc3ccc4c(c3)OCCO4)cc2c1=O,-7.09%
10,Cc1cc(OCC(=O)N2CCC(C(=O)O)(c3ccccc3)CC2)c2c(C)cc(=O)oc2c1,4.39%
11,Cc1c(C(c2ccccc2Cl)c2c(O)c3ccccc3oc2=O)c(=O)n(-c2ccccc2)n1C (stereo not drawn),14.9%
12,O=C(N/N=C/c1ccc(OC(=O)c2ccc(Br)cc2)cc1)c1ccncc1,9.74%
13,O=c1cc(CN2CCN(Cc3ccccc3)CC2)c2cc3c(cc2o1)CCC3,-6.66%
14,CN(Cc1ccccc1)C(=O)CN1C(=O)c2ccccc2C1=O,9.54%
15,CC(=O)N(C(C)=O)N1C(=O)/C(=C/c2ccc(Cl)cc2)SC1=S,5.13%
16,O=C1CCCC2=C1C(c1ccncc1)c1c(nc(SCc3ccccc3)[nH]c1=O)N2 (stereo not drawn),14.1%
17,Cn1c(Cc2ccccc2)nnc1SCc1ccc(C(=O)O)cc1,1.26%
18,CCC(CC)C(=O)NCc1ccc(Cl)cc1,6.62%
19,O=C(Nc1cccc(S(=O)(=O)N2CCOCC2)c1)c1ccc(Cl)c([N+](=O)[O-])c1,10.6%
20,Cc1ccc(Cn2cnc3c(nnn3Cc3ccc(Cl)cc3)c2=O)cc1,0.735%
21,COCc1cc(C)nc(SC)c1C#N,13.7%
22,Cc1cccn2c(CNCC3(c4ccccc4)CCCC3)c(C(=O)N3CCOCC3)nc12,7.59%
23,COc1ccc2[nH]c3c(N4CCN(Cc5ccc6c(c5)OCO6)CC4)ncnc3c2c1,-1.31%
24,CCN(C(=S)Nc1ccccc1F)C1CCCCC1,5.34%
25,Cc1cc(C)c(NC(=O)COc2cccnc2[N+](=O)[O-])c(C)c1,11.8%
26,CC1(C)CC(=O)C2=C(C1)N(Cc1ccco1)C(=O)C2(NC(=O)c1ccc(Cl)cc1Cl)C(F)(F)F (stereo not drawn),6.14%
27,CCC1(C)N=C(c2ccc3c(c2)OCO3)CC(c2ccccc2O)N1 (stereo not drawn),11.9%
